Test results: PubChem BioAssay AID686978 (National Center for Advancing Translational Sciences (NCATS), 2013)
Among all 420,000 compounds or so, about 64,000 (15%) were called active. Inconclusive results, whose numbers are uncertain, are shown with a selection of clear calls. Calls come from the whole dose curve; as a rule, active = well fitted inhibition curve with a large enough effect; inconclusive = small, poorly fitted or top-dose-only effect; inactive = flat fitted curve, though single readings scatter. Potencies of inconclusive entries are left out as doubtful fits.

Test: qHTS for Inhibitors of human tyrosyl-DNA phosphodiesterase 1 (TDP1): qHTS in cells in absence of CPT; note: nearly all actives have a fitted effect of over 55% in size
Conditions: DT40 Tdp1-/- hTDP1 cells, no CPT, ATP luminescence, 48 h; activity change, negative = growth inhibition: at 46.2 µM (top of the series) unless noted
Summary of the method: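 A cellular qHTS used chicken DT40 cells lacking endogenous Tdp1 but carrying stably transfected human TDP1. Compounds were applied without camptothecin, and cell growth kinetics were judged by ATP-dependent luminescence after ≥48 hr.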
% is set by controls: 0 for no effect and ±100 for the full control effect; potency is the fitted concentration of half-maximal effect; tags give direction and shape of the fitted curve.

Row | Compound | Potency | activity change, negative = growth inhibition
1 | Cn1c(SCC(=O)Nc2ccc3nc(SCC(=O)N4CCCC4)sc3c2)nnc1-c1ccccc1 | inconclusive [inhibitor, single point] | 
2 | Cn1cnc2c(N/N=C/c3cccs3)ncnc21 | inconclusive [inhibitor, single point] | 
3 | COc1cccc(CNC(=O)c2cnc(-c3ccccn3)nc2C(F)(F)F)c1 | inconclusive [inhibitor, single point] | 
4 | COc1cccc(C2=NOC(C(=O)N3CCN(c4ccccc4)CC3)C2)c1OC (stereo unspecified) | inconclusive [inhibitor, single point] | 
5 | O=C(NC1=NCCS1)c1nc(-c2ccccc2)n(-c2ccccc2)n1 | inconclusive [inhibitor, single point] | 
6 | COc1ccc(-c2nnc(NC(=O)c3cccs3)s2)c(OC)c1 | active: 29.1 µM | 
7 | O=C(c1ccc2c3c(cccc13)C(=O)N(O)C2=O)N1CCCCC1 | active: 7.31 µM | 
8 | COc1cc(F)ccc1-c1csc(C(C)(O)c2ccc(F)c(F)c2)n1 (stereo unspecified) | active: 18.4 µM | 
9 | Cc1cc(NC(=O)Nc2cccc(Cl)c2)n(C(C)(C)C)n1 | inconclusive [inhibitor, single point] | 
10 | CCCCN1CCc2nc(N3CCN(C)CC3)ncc2C1 | inconclusive [inhibitor, single point] | 
11 | CN(C)S(=O)(=O)N1CCC(Oc2ccc(C(=O)NC3Cc4ccccc4C3)cc2)CC1 | active: 16.4 µM | 
12 | COc1cc(C2c3c(n[nH]c3C)C(=O)N2c2ccc(Br)cc2)ccc1O (stereo unspecified) | inconclusive [inhibitor, single point] | 
13 | O=c1oc2ccccc2n1Cc1cccc(C(F)(F)F)c1 |  | inconclusive: -31.6% [inhibitor]
14 | C=C(C)COc1ccc(-c2nc(N)ncc2-c2ccc(Br)cc2)c(O)c1 | inconclusive [inhibitor, partial curve] | 
15 | COCCn1c(=O)c(-c2cccs2)nc2cnc(Oc3ccc(OC)cc3)nc21 | active: 25.9 µM | 
16 | O=c1oc2ccccc2c(CNc2ccccc2)c1[N+](=O)[O-] |  | inactive: 4.23%
17 | CCCOc1ccc(S(=O)(=O)NCCCN2CCOCC2)c2ccccc12 | inconclusive [inhibitor, single point] | 
18 | Cc1nn(C2CC(O)C(O)C(CO)O2)c(=O)[nH]c1=O (stereo unspecified) |  | inactive: -5.95%
19 | COc1ccc(N2CCN(C(=O)CS(=O)(=O)c3cccc4nsnc34)CC2)cc1 |  | inactive: -28.5%
20 | CC(C)(C)c1cc(C(F)(F)F)n2ncc(-c3ccccc3)c2n1 | inconclusive [inhibitor, single point] | 
21 | O=C(CN1C(=O)NC2(CCCC2)C1=O)NNC(=O)c1ccccc1 |  | inactive: -12.9%
22 | COCCNc1nc2c(c(=O)n(C)c(=O)n2C)n1Cc1cccc(C)c1 | active: 7.31 µM | 
23 | FC(F)(F)c1ccccc1-c1nccc(NCc2ccccc2)n1 | inconclusive [inhibitor, single point] | 

Row | Compound | Potency | activity change, negative = growth inhibition
24 | COc1ccc(Cl)cc1NC(=O)c1cc(C)nn1-c1ccccc1 | inconclusive [inhibitor, single point] | 
25 | O=S(=O)(c1cccc(F)c1)N1CCN(Cc2cc3c(cc2Br)OCCO3)CC1 | inconclusive [inhibitor, single point] | 
26 | COc1cccc(N2CCN(S(=O)(=O)c3ccc4c(c3)CCCN4C(C)=O)CC2)c1 | inconclusive [inhibitor, single point] | 
27 | C/C(=N\NC(=O)Cc1cccn1C)c1ccc2ccccc2c1 | inconclusive [inhibitor, single point] | 
28 | Cc1nn(C(C)C(=O)NC2CCC(C)CC2)c(=O)c2cc3sccc3n12 (stereo unspecified) | inconclusive [inhibitor, single point] | 
29 | Cc1ccc(NCCCCO)cc1C | inconclusive [inhibitor, single point] | 
30 | COc1cc(/C=C2\SC(=S)N(Nc3ncc(C(F)(F)F)cc3Cl)C2=O)cc(OC)c1OC |  | inactive: -14.7%
31 | CN(Cc1ccccc1)c1nc2c(c(=O)n(C)c(=O)n2C)n1CCSc1ncccn1 | active: 18.4 µM | 
32 | COc1ccc(CCN2CCC(CNC(=O)c3cnn(-c4ccccc4)c3C3CCN(C(=O)OC(C)(C)C)CC3)CC2)cc1 | active: 8.2 µM | 
33 | CC(NC(=S)NC1CCCCC1)c1ccccc1 (stereo unspecified) | inconclusive [inhibitor, single point] | 
34 | CCOC(=O)C(NC(=O)c1ccccc1)=C(C)C |  | inactive: -14.8%
35 | CN(C)c1ccc(CNC(=O)CCCn2ccc3cc(S(=O)(=O)N4CCCC4)ccc32)cc1 | active: 18.4 µM | 
36 | CSc1n[nH]c2nc3c(c(=O)n12)C1(CCCCC1)Cc1ccccc1-3 | inconclusive [inhibitor, partial curve] | 
37 | COc1cc(C(=O)N(C)C2CCCN(Cc3ccccc3F)C2)cc(OC)c1OC (stereo unspecified) |  | inactive: -8.22%
38 | CSc1ccc(N/N=C(/C#N)S(=O)(=O)C(C)(C)C)cc1 | inconclusive [inhibitor, single point] | 
39 | COc1ccc(OC)c(S(=O)(=O)N2CC=C(c3c(C)n(CC(=O)N4CCCC4)c4ccccc34)CC2)c1 | active: 18.4 µM | 
40 | C=CCc1cccc(/C=N/NC(=O)c2ccc3nc[nH]c3c2)c1O | active: 5.8 µM | 
41 | CCOc1ccc(C2C(C(=O)Nc3ccc(Cl)cc3)=C(C)Nc3nc(C(F)(F)F)nn32)cc1 (stereo unspecified) | active: 14.6 µM | 
42 | C=C[C@@H]1c2ccccc2N(S(=O)(=O)c2ccc(C)cc2)[C@H](c2ccc(OC(C)=O)cc2)C1(C#N)C#N | active: 15.8 µM | 
43 | CCCCNC(=O)[C@]1(C)CCC[C@@]2(C)C3CC[C@@]4(C)C[C@]3(CCC21)CC4=O (stereo partly specified) | inconclusive [inhibitor, single point] | 
44 | O=S(=O)(c1ccc(Cl)cc1)c1nnn2c1nc(N1CCCCC1)c1sccc12 | active: 16.4 µM | 
45 | COc1ccc(S(=O)(=O)N(CC(=O)NCC2CCCO2)c2ccccc2)cc1OC (stereo unspecified) |  | inactive: -9.58%
46 | CCCCCCCCCC(=O)N/N=C/c1ccc(C)s1 | inconclusive [inhibitor, single point] | 
